Measured values taken from article PMC4336329 (PLoS ONE, 2015).
The whole screen tested about 310,000 compounds, of which about 14,000 (4.5%) showed an effect of 50% or more. The effect is printed as a negative number. The list shows a part of the results.

These compounds were tested against human ether-à-go-go-related gene (hERG) potassium channel (human, UniProt Q12809) (assay: primary screen, population patch clamp on CHO cells stably expressing hERG).
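Also: peak tail current of the secondary pulse compared with the same well before compound.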

Chain of human ether-à-go-go-related gene (hERG) potassium channel (Q12809 whole entry, looked up): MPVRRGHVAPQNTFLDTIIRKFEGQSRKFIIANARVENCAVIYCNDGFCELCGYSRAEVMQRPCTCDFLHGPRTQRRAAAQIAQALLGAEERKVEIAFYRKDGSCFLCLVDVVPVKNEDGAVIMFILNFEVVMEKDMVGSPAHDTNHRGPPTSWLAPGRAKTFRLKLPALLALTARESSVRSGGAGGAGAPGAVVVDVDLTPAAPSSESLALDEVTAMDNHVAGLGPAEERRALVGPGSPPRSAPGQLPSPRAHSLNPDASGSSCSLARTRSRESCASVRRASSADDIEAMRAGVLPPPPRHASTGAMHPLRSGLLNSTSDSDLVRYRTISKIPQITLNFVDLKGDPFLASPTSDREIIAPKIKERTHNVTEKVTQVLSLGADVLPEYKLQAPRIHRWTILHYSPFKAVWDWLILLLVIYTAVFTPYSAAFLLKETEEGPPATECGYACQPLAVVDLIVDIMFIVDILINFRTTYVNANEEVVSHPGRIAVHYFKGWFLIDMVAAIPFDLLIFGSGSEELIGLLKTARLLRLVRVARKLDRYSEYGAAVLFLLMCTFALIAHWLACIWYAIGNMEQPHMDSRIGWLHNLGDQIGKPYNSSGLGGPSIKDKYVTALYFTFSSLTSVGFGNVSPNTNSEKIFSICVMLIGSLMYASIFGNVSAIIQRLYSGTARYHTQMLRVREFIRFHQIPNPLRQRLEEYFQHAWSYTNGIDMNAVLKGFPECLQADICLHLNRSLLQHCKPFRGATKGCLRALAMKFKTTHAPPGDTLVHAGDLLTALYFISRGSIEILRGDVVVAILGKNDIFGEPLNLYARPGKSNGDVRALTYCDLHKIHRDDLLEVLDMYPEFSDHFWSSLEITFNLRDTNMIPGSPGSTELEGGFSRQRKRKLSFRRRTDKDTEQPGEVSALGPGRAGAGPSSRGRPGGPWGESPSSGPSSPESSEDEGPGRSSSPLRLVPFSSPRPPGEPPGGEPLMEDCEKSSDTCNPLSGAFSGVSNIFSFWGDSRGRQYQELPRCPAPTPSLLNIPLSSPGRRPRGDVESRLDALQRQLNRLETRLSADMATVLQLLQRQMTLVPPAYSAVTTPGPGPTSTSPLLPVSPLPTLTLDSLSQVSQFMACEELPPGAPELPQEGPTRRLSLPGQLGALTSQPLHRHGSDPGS

Compared with `N=c1c2ccccc2nnn1-c1cccc(C(F)(F)F)c1`, `CCn1cc(-c2nnnn2-c2ccc(Cl)cc2)c(=O)c2ccccc21` is lower in “hERG current change (%, negative = inhibition) at 10uM” value: 7.6% for the first, -58.8% for the second.

Going from `O=c1[nH]snc1N1CCOCC1` to `O=C(C1CCN(S(=O)(=O)c2ccc(F)cc2)CC1)N1CCOCC1`, the “hERG current change (%, negative = inhibition) at 10uM” value rises from 14.8% to 15.3%.

Compared with `O=C(Nc1cccc(Cl)c1)Nc1nnc(-c2ccncc2)s1`, `CC(=O)Nc1ccc(C(=O)Nc2nnc(CCc3ccccc3)s2)cc1` is higher in “hERG current change (%, negative = inhibition) at 10uM” value: -1.91% for the first, 10.7% for the second.

Going from `CCOC(=O)[C@@H]1[C@H]2COc3cc(OC)ccc3[C@H]2N2C(=O)N(c3ccc(C)cc3)C(=O)[C@@]12C` to `COc1ccc(OC)c(N(C)S(=O)(=O)c2cc3c(cc2C)NC(=O)CO3)c1`, the “hERG current change (%, negative = inhibition) at 10uM” value falls from 2.35% to -0.289%.

First: CCOC(=O)C1CCCN(Cc2cn(C)nc2-c2ccc3c(c2)OCCO3)C1 (stereo not drawn)
Second: CCn1c(SCC(=O)Nc2ccc3c(c2)OCCO3)nnc1C1CC1
The “hERG current change (%, negative = inhibition) at 10uM” value of the first is lower: -24.7% for the first, 9.05% for the second.

Compared with `O=C(C[n+]1cc(-c2ccc(Cl)cc2)n2c1CCC2)Nc1nc(-c2ccccc2)cs1.[Cl-]`, `Cc1ccc(-c2nc(CSc3nc4ccccc4c(=O)n3C)cs2)cc1` is higher in “hERG current change (%, negative = inhibition) at 10uM” value: -0.843% for the first, 9.52% for the second.

Going from `C/C(=C\c1ccc2c(c1)OCO2)C(=O)c1c(C)cc(C)[nH]c1=O` to `Cc1cc2cc(CNC(=O)c3ccc4c(c3)OCO4)ccc2[nH]1`, the “hERG current change (%, negative = inhibition) at 10uM” value falls from 2.08% to -1.85%.

Going from `O=C(O)C1C2CCC(O2)C1C(=O)Nc1cccc(F)c1` (stereo not drawn) to `CCOC(=O)C(O)(c1ccc(NC(=O)c2ccco2)c(OC)c1)C(F)(F)F` (stereo not drawn), the “hERG current change (%, negative = inhibition) at 10uM” value falls from 8.09% to -14.6%.

Going from `Cc1nc(C)c(C(=O)C2=C(O)C(=O)N(CCN(C)C)C2c2ccco2)s1` (stereo not drawn) to `CCOC(=O)CN1C(=O)C(O)=C(C(C)=O)C1c1ccc([N+](=O)[O-])cc1` (stereo not drawn), the “hERG current change (%, negative = inhibition) at 10uM” value falls from 6.65% to -10.3%.

Going from `CN(C)Cc1c[nH]c2ccccc12` to `C[n+]1ccc(/C=C/c2c[nH]c3ccccc23)cc1.[I-]`, the “hERG current change (%, negative = inhibition) at 10uM” value falls from 17% to 5.37%.

Going from `Cn1cnc([N+](=O)[O-])c1SCC(O)CN1CCCCC1` (stereo not drawn) to `Cc1ccc(-c2nnn(CC(=O)N3CCCCC3)n2)c(-n2cnnn2)c1`, the “hERG current change (%, negative = inhibition) at 10uM” value falls from 5.38% to -2.81%.

Going from `CC(C)(C)NC(=O)COc1ccc(S(=O)(=O)N2CCCC2)cc1` to `CCN1CCN(c2ccc(S(=O)(=O)N3CCCCC3)cc2NC(=O)c2cc3ccccc3o2)CC1`, the “hERG current change (%, negative = inhibition) at 10uM” value falls from 17.1% to -53.7%.

First: Cc1ccc(C(=O)COC(=O)CCc2nc3ccccc3[nH]c2=O)cc1C
Second: COc1cccc(-c2nc(CS(=O)(=O)CC(=O)Nc3ccccc3C)c(C)o2)c1
The “hERG current change (%, negative = inhibition) at 10uM” value of the first is lower: 11.7% for the first, 16.6% for the second.

Going from `COc1ccc(CN2CCC(C(=O)c3cccc(Cl)c3)CC2)cc1` to `CCCN1Cc2cccc(C(=O)N3CCN(c4ccc(OC)cc4)CC3)c2C1=O`, the “hERG current change (%, negative = inhibition) at 10uM” value rises from -78.7% to 3.41%.

Going from `CCOc1ccc2c(c1)C(C)=CC(C)(C)N2` to `COc1ccc2c(c1)CC(=O)NC=C2`, the “hERG current change (%, negative = inhibition) at 10uM” value rises from 15.5% to 21.2%.

Going from `Cc1ccc2nc(NC(=O)Cc3cccs3)sc2c1` to `Cc1ccc(C(=O)CNc2ccc(C)c(Cl)c2)cc1`, the “hERG current change (%, negative = inhibition) at 10uM” value rises from -1.43% to 7.99%.

Compared with `CCCCCC(=O)Nc1ccc(S(=O)(=O)Nc2nccc(C)n2)cc1`, `CCCC(=O)Nc1ccccc1NC(=O)CN(C)S(=O)(=O)c1ccc(C)cc1` is lower in “hERG current change (%, negative = inhibition) at 10uM” value: 22.9% for the first, 0.281% for the second.

First: CC1(C)C(=O)Nc2ccccc2N1C(=O)COC(=O)COc1ccc(C#N)cc1
Second: CC(=O)Nc1ccc(NC(=O)CCOc2ccccc2C)cc1
The “hERG current change (%, negative = inhibition) at 10uM” value of the first is lower: 8.82% for the first, 9.83% for the second.

First: Cc1ccc(-c2c(C(=O)N/N=C/c3ccc(OC(C)C)cc3)nnn2-c2nonc2N)cc1
Second: COc1ccc(/C=N/NC(=O)c2cccc([N+](=O)[O-])c2)cc1OS(=O)(=O)c1ccccc1
The “hERG current change (%, negative = inhibition) at 10uM” value of the first is higher: 7.64% for the first, 2.23% for the second.

Compared with `CCN1CCc2nc3ccccc3c(C(=O)Nc3ccc(NC(C)=O)cc3)c2C1`, `CC(=O)c1cn(CC(=O)Nc2ccccc2Cl)c2ccccc12` is higher in “hERG current change (%, negative = inhibition) at 10uM” value: 10.2% for the first, 14.2% for the second.

Going from `NC(=O)C1(c2ccccc2)CCOCC1` to `COc1ccc(S(=O)(=O)N2CCC3(CC2)OCCN3S(=O)(=O)c2ccccc2)cc1OC`, the “hERG current change (%, negative = inhibition) at 10uM” value falls from 16.3% to 0.907%.

Compared with `COc1ccc(C(CCN2CCOCC2)c2c(OC)cc(OC)c3c(C)cc(=O)oc23)cc1` (stereo not drawn), `COc1ccc(CCNC(=O)C(NS(=O)(=O)c2ccc3c(c2)CCN3C(C)=O)C(C)C)cc1OC` (stereo not drawn) is higher in “hERG current change (%, negative = inhibition) at 10uM” value: -69.2% for the first, 25.1% for the second.

Compared with `Cc1cc(OCC(=O)N2CCN(c3ncccn3)CC2)ccc1Cl`, `COc1ccc(N2CCN(C(=O)c3cc4c(s3)-c3ccccc3OC4)CC2)cc1` is higher in “hERG current change (%, negative = inhibition) at 10uM” value: -14.6% for the first, 16.5% for the second.

Going from `O=C(Cc1ccccc1F)Nc1ccc(Cl)nc1` to `CN(C)CCNC(=O)c1cccc(NS(=O)(=O)c2ccc(Cl)c(Cl)c2)c1`, the “hERG current change (%, negative = inhibition) at 10uM” value rises from 0.824% to 0.919%.

Going from `CCN(CC)S(=O)(=O)c1cccc(NC(=O)CCNC(=O)c2ccc([N+](=O)[O-])cc2)c1` to `CCN(CC)S(=O)(=O)c1ccc(O)c(NC(=O)CN2CCc3ccccc3C2)c1`, the “hERG current change (%, negative = inhibition) at 10uM” value rises from -62.4% to 22.3%.

Going from `CCCOc1ccc(N2C(=O)CC(N(CCOC34CC5CC(CC(C5)C3)C4)C(C)=O)C2=O)cc1` (stereo not drawn) to `Cc1cc(C)n(CC2CC(=O)N(c3ccccc3)C2=O)n1` (stereo not drawn), the “hERG current change (%, negative = inhibition) at 10uM” value rises from -14.1% to 18.6%.

Going from `Cc1cnc(NC(=O)C2CCC(C(C)(C)C)CC2)s1` (stereo not drawn) to `CC1CCC2(CC1)NC(=S)N(C(C)(C)C)N2` (stereo not drawn), the “hERG current change (%, negative = inhibition) at 10uM” value rises from 13.8% to 16.5%.

Going from `CC1=C(C/C(C)=C/c2ccccc2)/C(=C/CO)[C@@H]2OC(=O)O[C@]2(C)C12CC2` to `C=CCn1c(SCC(=O)N2CCc3ccccc3C2)nc2ccccc2c1=O`, the “hERG current change (%, negative = inhibition) at 10uM” value falls from 2.65% to -61.5%.

First: COc1cccc(OCc2cc(C(=O)N3CCC(C(O)C(C)C)CC3)no2)c1 (stereo not drawn)
Second: COc1ccc(S(=O)(=O)N2CCOC2CNC(=O)C(=O)NCc2ccco2)cc1OC (stereo not drawn)
The “hERG current change (%, negative = inhibition) at 10uM” value of the first is lower: -16.1% for the first, -3.32% for the second.

Compared with `CCc1nnc(NC(=O)C(=O)NCCOC(=O)c2ccccc2)s1`, `CCc1nnc(NC(=O)CSc2nnc(-c3ccoc3C)n2-c2ccccc2)s1` is lower in “hERG current change (%, negative = inhibition) at 10uM” value: 18.4% for the first, -3.54% for the second.

First: COC(=O)c1cn(C)c2ccc(S(=O)(=O)N3CC(C)CC(C)C3)cc2c1=O (stereo not drawn)
Second: COc1ccc(S(N)(=O)=O)cc1C(=O)NCCCN1CCN(c2ccc(C)cc2)CC1
The “hERG current change (%, negative = inhibition) at 10uM” value of the first is higher: -5.76% for the first, -50.7% for the second.

First: CCCc1ccc(C(=O)CCC(=O)O)cc1
Second: COc1ccc(C(=O)NNC(=O)C2(C)CC2(Br)Br)cc1 (stereo not drawn)
The “hERG current change (%, negative = inhibition) at 10uM” value of the first is lower: -4.35% for the first, 10% for the second.

Compared with `Clc1ccc(-n2nnc(-c3cccnc3Cl)n2)cc1Cl`, `Cc1cc(=O)c(C(=O)O)nn1-c1ccc(Cl)cc1` is higher in “hERG current change (%, negative = inhibition) at 10uM” value: 21.2% for the first, 26.6% for the second.

Going from `O=C(Nc1ccc(N2CCN(C(=O)c3ccc(Cl)cc3)CC2)cc1)c1ccc(Br)o1` to `Cc1cc(C(=O)COC(=O)c2ccc(Br)o2)c(C)n1Cc1ccco1`, the “hERG current change (%, negative = inhibition) at 10uM” value rises from -75.3% to 9.95%.

Compared with `Cc1oc(-c2ccccc2F)nc1CS(=O)(=O)CC(=O)NCCN(C)C1CCCCC1`, `Cn1c(=O)n(CC(=O)OCc2ccccc2)c(=O)c2c1nc1n2CCCN1C1CCCCC1` is higher in “hERG current change (%, negative = inhibition) at 10uM” value: -25.6% for the first, -5.15% for the second.

Compared with `CCn1cc(Cl)c(C(=O)NNC(=O)CCn2cc([N+](=O)[O-])cn2)n1`, `C=CCNC(=O)CN(c1cc(Cl)ccc1OC)S(=O)(=O)c1ccc(C)c([N+](=O)[O-])c1` is lower in “hERG current change (%, negative = inhibition) at 10uM” value: 9.18% for the first, 3.12% for the second.

Going from `CC(=O)Nc1nnc(SCC(=O)NCc2ccc3c(c2)OCO3)s1` to `CCc1ccc(CNC(=O)CCS(=O)(=O)Cc2ccc(C)cc2)cc1`, the “hERG current change (%, negative = inhibition) at 10uM” value falls from 15.8% to 6.45%.

First: Cc1cc(C#Cc2c(-c3ccccc3)n(C)c3ccccc23)ccc1F
Second: COc1ccc(O/C(=N\S(=O)(=O)c2ccccc2)c2ccccc2)cc1
The “hERG current change (%, negative = inhibition) at 10uM” value of the first is lower: -11.1% for the first, 2.84% for the second.

First: COc1cc(NC(=S)NCCc2ccc(S(N)(=O)=O)cc2)c(OC)cc1Cl
Second: Cc1c(Cl)cnc(NC(=O)COC(=O)c2ccc(S(=O)(=O)NCc3ccco3)cc2)c1Cl
The “hERG current change (%, negative = inhibition) at 10uM” value of the first is higher: 8.68% for the first, -13.8% for the second.

Going from `CCOC(=O)N1CCN(C(=O)COC(=O)c2ccc(O)cc2O)CC1` to `COc1ccc(/C=N/NC(=O)CN2CCSCC2)cc1C`, the “hERG current change (%, negative = inhibition) at 10uM” value falls from 16.7% to -1.96%.

Compared with `CCNC(=O)Nn1c(C)nnc1C`, `CCCNS(=O)(=O)c1cc(Br)cc2c1N(C(=O)CC)CC2` is lower in “hERG current change (%, negative = inhibition) at 10uM” value: 6.41% for the first, -3.88% for the second.

Compared with `Cc1n[nH]c(C)c1S(=O)(=O)N1CCC(C(=O)O)CC1.Cl`, `O=C1c2cccnc2C(Nc2ccccc2)N1Cc1ccco1` (stereo not drawn) is lower in “hERG current change (%, negative = inhibition) at 10uM” value: 1.54% for the first, -6.24% for the second.

Going from `COc1cccc(-c2sc3ccc(OC)cc3c2-c2ccc(O)cc2)c1` to `O=[N+]([O-])c1ccccc1-c1cc(-c2ccccc2)cc(-c2ccccc2)[n+]1Cc1ccccc1Cl.[O-][Cl+3]([O-])([O-])[O-]`, the “hERG current change (%, negative = inhibition) at 10uM” value falls from 15.9% to -78.7%.

In the case of `Oc1ccc(/C=N/Nc2ncnc3nc[nH]c23)cc1`, the “hERG current change (%, negative = inhibition) at 10uM” value is reported as 6.9%.
